# Assay results taken from the supplement of paper PMC8728848.
# This is one part of the list.
# B1: Epa1-NP-mutant-Y228A (Candida glabrata), Q6VBJ0 (protein)
# chain: MILNPALFLNKCVCIYTTLILLLLTNGGYATSSNDISLASKDPTTFPLGCSPDITTPKKGLSMELYSYDFRKKGSYPCWDAAYLDPNYPRTGYKSHRLLAKVDGVTGNINFYYHATKGCTPQLGHLPASYNYPKPLTMTNFTMLLYGYFRPKVTGFHTFTISADDLLFVNFGAGNAFDCCRRDSSADHFGNYQAYAIWGSKTAKDELTVHLDAGVYYPIRLFYNNREADGALSFTFKTESNENTVSDFSEYFFSLDDTEEGCPGLISYDSSCASVKTSKIIGIDYHTETPNENLVPITKTIYHLGIPCTGTTTTPLCGSGFYDPLANKCVTINTSSTSSVTKTTSHTTSKEVSFHSSISSQKTLIPKSIPSPYGPIKSQSIPTEMETSSEISSSEYAFSDVISTPSHSPYTKKHSSLNSSSYTSTVIHSLTSYSISQGIFSTSLSEQNITSKSSTDKFSTATSMSNNITQSSIIISQFSTNNENYTTTSMHTSSDKISTETLNNSISTTTSILFSNSSTILKNNTTIISSDKDTHYHPVNPTIVCSTNKTEIICASITQPSISNSNNHWSSSVLKFNSTTVRSTLPSSAGSNETSINVPFSSSTESNTSTSSTSTSNSKMVRSTLPSSAGSNETSISVPFSSSTESNTSTSSTSTSNSKMVRSTLPSSAGSNETSINVPFSSSTESNTSTSSTSTSNSKTVRSTPFSSAGIIMTSLSQRNNKSASSYASSNSKCYNTADSCRKVHSTPSYLLTSSYTSEGVDYDCSLVSTKLKINDTNCVNNKHTTKSCLKTSVTTTIPTLEIKTARKSSSNTIGLHSYPTSSPNKSISSAPIIGYISSFKTIKTASPSYQTSDLTTITTITSLNNPGSTAVENTHESNDKSRKTSSNDISSKHSVIKETKDAVESSNKSHQTNTLKCSSIIIASSSHNSYESLGGTTLTLTLSKVYSPQNNDTLPFLEISEVNPSRTVLPESSKMMQYLTSTEERNKTARNTIATNIVSISTFHFEGEGNAIRMGYTQLLLMLIGIIVMNIGT
# How the values were obtained:
# Assay in all cases: glycan array binding signal (z-score within array); higher = stronger binding
# Settings in all cases: glycan notation: IUPAC condensed, linker removed; mutation: Y228A
# [1] = biological target: Neu5Ac(a2-6)Gal(b1-4)GlcNAc(b1-3)Gal(b1-4)GlcNAc(b1-3)Gal(b1-4)GlcNAc(b1-2)Man(a1-3)[Neu5Ac(a2-6)Gal(b1-4)GlcNAc(b1-3)Gal(b1-4)GlcNAc(b1-3)Gal(b1-4)GlcNAc(b1-2)Man(a1-6)]GalNAc
# How it was run: (§1)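 The binding signal is a Z-score computed within each array and averaged over linkers. Arrays of the same protein sequence at different concentrations or buffers were also averaged together. Data originate from 3228 arrays in the Consortium for Functional Glycomics database, kept only where the protein sequence was available.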
# [2] = biological target: Neu5Ac(a2-6)Gal(b1-4)GlcNAc(b1-3)Gal(b1-4)GlcNAc(b1-3)GalNAc
# How it was run: as §1
# [3] = biological target: Neu5Ac(a2-6)Gal(b1-4)GlcNAc(b1-3)Gal(b1-4)GlcNAc(b1-3)[Neu5Ac(a2-6)Gal(b1-4)GlcNAc(b1-3)Gal(b1-4)GlcNAc(b1-6)]GalNAc
# How it was run: as §1
# [4] = biological target: Neu5Ac(a2-6)Gal(b1-4)GlcNAc(b1-3)Gal(b1-4)GlcNAc(b1-6)[Gal(b1-3)]GalNAc
# How it was run: as §1
# [5] = biological target: Neu5Ac(a2-6)Gal(b1-4)GlcNAc(b1-3)Gal(b1-4)[Fuc(a1-3)]GlcNAc(b1-3)Gal(b1-4)[Fuc(a1-3)]GlcNAc
# How it was run: as §1
# [6] = biological target: Neu5Ac(a2-6)Gal(b1-4)GlcNAc(b1-3)GalNAc
# How it was run: as §1
# [7] = biological target: Neu5Ac(a2-6)Gal(b1-4)GlcNAc(b1-3)[Neu5Ac(a2-6)Gal(b1-4)GlcNAc(b1-6)]GalNAc
# How it was run: as §1
# [8] = biological target: Neu5Ac(a2-6)Gal(b1-4)GlcNAc(b1-6)GalNAc
# How it was run: as §1
# [9] = biological target: Neu5Ac(a2-6)Gal(b1-4)GlcNAc(b1-6)[Gal(b1-3)GlcNAc(b1-3)]Gal(b1-4)Glc
# How it was run: as §1
# [10] = biological target: Neu5Ac(a2-6)Gal(b1-4)GlcNAc(b1-6)[Gal(b1-3)]GalNAc
# How it was run: as §1
# [11] = biological target: Neu5Ac(a2-6)Gal(b1-4)GlcNAc6S
# How it was run: as §1
# [12] = biological target: Neu5Ac(a2-6)GalNAc
# How it was run: as §1
# [13] = biological target: Neu5Ac(a2-6)GalNAc(b1-4)GlcNAc
# How it was run: as §1
# [14] = biological target: Neu5Ac(a2-6)GalNAc(b1-4)GlcNAc6S
# How it was run: as §1
# [15] = biological target: Neu5Ac(a2-6)GlcNAc(b1-4)GlcNAc
# How it was run: as §1
# [16] = biological target: Neu5Ac(a2-6)GlcNAc(b1-4)GlcNAc(b1-4)GlcNAc
# How it was run: as §1
# [17] = biological target: Neu5Ac(a2-8)Neu5Ac
# How it was run: as §1
# [18] = biological target: Neu5Ac(a2-8)Neu5Ac(a2-3)Gal(b1-3)GalNAc(b1-4)[Neu5Ac(a2-3)]Gal(b1-4)Glc
# How it was run: as §1
# [19] = biological target: Neu5Ac(a2-8)Neu5Ac(a2-3)Gal(b1-3)GalNAc(b1-4)[Neu5Ac(a2-8)Neu5Ac(a2-3)]Gal(b1-4)Glc
# How it was run: as §1
# [20] = biological target: Neu5Ac(a2-8)Neu5Ac(a2-3)Gal(b1-4)Glc
# How it was run: as §1
# [21] = biological target: Neu5Ac(a2-8)Neu5Ac(a2-3)Gal(b1-4)GlcNAc
# How it was run: as §1
# [22] = biological target: Neu5Ac(a2-8)Neu5Ac(a2-3)[Gal(b1-3)GalNAc(b1-4)]Gal(b1-4)Glc
# How it was run: as §1
# [23] = biological target: Neu5Ac(a2-8)Neu5Ac(a2-3)[GalNAc(b1-4)]Gal(b1-4)Glc
# How it was run: as §1
# [24] = biological target: Neu5Ac(a2-8)Neu5Ac(a2-8)Neu5Ac
# How it was run: as §1
# [25] = biological target: Neu5Ac(a2-8)Neu5Ac(a2-8)Neu5Ac(a2-3)Gal(b1-4)Glc
# How it was run: as §1
# [26] = biological target: Neu5Ac(a2-8)Neu5Ac(a2-8)Neu5Ac(a2-3)[Gal(b1-3)GalNAc(b1-4)]Gal(b1-4)Glc
# How it was run: as §1
# [27] = biological target: Neu5Ac(a2-8)Neu5Ac(a2-8)Neu5Ac(a2-3)[GalNAc(b1-4)]Gal(b1-4)Glc
# How it was run: as §1
# [28] = biological target: Neu5Ac(a2-8)Neu5Ac(a2-8)Neu5Ac(a2-8)Neu5Ac(a2-3)[GalNAc(b1-4)]Gal(b1-4)Glc
# How it was run: as §1
# [29] = biological target: Neu5Ac(a2-8)Neu5Gc(a2-3)Gal(b1-4)GlcNAc
# How it was run: as §1
# [30] = biological target: Neu5Ac(b2-6)Gal(b1-4)GlcNAc
# How it was run: as §1
# [31] = biological target: Neu5Ac(b2-6)GalNAc
# How it was run: as §1
# [32] = biological target: Neu5Ac9Ac(a2-3)Gal(b1-3)GlcNAc
# How it was run: as §1
# [33] = biological target: Neu5Ac9Ac(a2-3)Gal(b1-4)GlcNAc
# How it was run: as §1
# [34] = biological target: Neu5Ac9Ac(a2-6)Gal(b1-4)GlcNAc
# How it was run: as §1
# [35] = biological target: Neu5Gc(a2-3)Gal(b1-3)GlcNAc
# How it was run: as §1
# [36] = biological target: Neu5Gc(a2-3)Gal(b1-3)[Fuc(a1-4)]GlcNAc
# How it was run: as §1
# [37] = biological target: Neu5Gc(a2-3)Gal(b1-4)Glc
# How it was run: as §1
# [38] = biological target: Neu5Gc(a2-3)Gal(b1-4)GlcNAc
# How it was run: as §1
# [39] = biological target: Neu5Gc(a2-3)Gal(b1-4)GlcNAc(b1-3)Gal(b1-4)GlcNAc(b1-2)Man(a1-3)[Neu5Gc(a2-3)Gal(b1-4)GlcNAc(b1-3)Gal(b1-4)GlcNAc(b1-2)Man(a1-6)]Man(b1-4)GlcNAc(b1-4)GlcNAc
# How it was run: as §1
# [40] = biological target: Neu5Gc(a2-3)Gal(b1-4)[Fuc(a1-3)]GlcNAc
# How it was run: as §1
# [41] = biological target: Neu5Gc(a2-6)Gal(b1-4)GlcNAc
# How it was run: as §1
# [42] = biological target: Neu5Gc(a2-6)GalNAc
# How it was run: as §1
# [43] = biological target: Neu5Gc(a2-8)Neu5Ac(a2-3)Gal(b1-4)GlcNAc
# How it was run: as §1
# [44] = biological target: Neu5Gc(a2-8)Neu5Gc(a2-3)Gal(b1-4)GlcNAc
# How it was run: as §1
# [45] = biological target: Neu5Gc(a2-8)Neu5Gc(a2-3)Gal(b1-4)GlcNAc(b1-3)Gal(b1-4)GlcNAc
# How it was run: as §1
# [46] = biological target: Neu5Gc(a2-8)Neu5Gc(a2-6)Gal(b1-4)GlcNAc
# How it was run: as §1
# [47] = biological target: Neu5Gc(b2-6)Gal(b1-4)GlcNAc
# How it was run: as §1
binder,measurement,setting,value
B1,glycan array binding signal (z-score),[1],-0.01
same,glycan array binding signal (z-score),[2],-0.246
same,glycan array binding signal (z-score),[3],-0.005
same,glycan array binding signal (z-score),[4],-0.278
same,glycan array binding signal (z-score),[5],-0.199
same,glycan array binding signal (z-score),[6],-0.142
same,glycan array binding signal (z-score),[7],-0.312
same,glycan array binding signal (z-score),[8],-0.274
same,glycan array binding signal (z-score),[9],0.07
same,glycan array binding signal (z-score),[10],-0.27
same,glycan array binding signal (z-score),[11],-0.255
same,glycan array binding signal (z-score),[12],-0.255
same,glycan array binding signal (z-score),[13],-0.248
same,glycan array binding signal (z-score),[14],-0.256
same,glycan array binding signal (z-score),[15],-0.155
same,glycan array binding signal (z-score),[16],-0.066
same,glycan array binding signal (z-score),[17],-0.285
same,glycan array binding signal (z-score),[18],-0.187
same,glycan array binding signal (z-score),[19],-0.093
same,glycan array binding signal (z-score),[20],-0.227
same,glycan array binding signal (z-score),[21],-0.316
same,glycan array binding signal (z-score),[22],-0.245
same,glycan array binding signal (z-score),[23],-0.247
same,glycan array binding signal (z-score),[24],-0.241
same,glycan array binding signal (z-score),[25],-0.247
same,glycan array binding signal (z-score),[26],-0.223
same,glycan array binding signal (z-score),[27],-0.111
same,glycan array binding signal (z-score),[28],-0.247
same,glycan array binding signal (z-score),[29],-0.185
same,glycan array binding signal (z-score),[30],-0.229
same,glycan array binding signal (z-score),[31],-0.205
same,glycan array binding signal (z-score),[32],-0.069
same,glycan array binding signal (z-score),[33],-0.24
same,glycan array binding signal (z-score),[34],-0.159
same,glycan array binding signal (z-score),[35],-0.069
same,glycan array binding signal (z-score),[36],-0.119
same,glycan array binding signal (z-score),[37],-0.024
same,glycan array binding signal (z-score),[38],-0.185
same,glycan array binding signal (z-score),[39],-0.089
same,glycan array binding signal (z-score),[40],-0.176
same,glycan array binding signal (z-score),[41],-0.177
same,glycan array binding signal (z-score),[42],-0.123
same,glycan array binding signal (z-score),[43],-0.229
same,glycan array binding signal (z-score),[44],-0.341
same,glycan array binding signal (z-score),[45],-0.346
same,glycan array binding signal (z-score),[46],-0.353
same,glycan array binding signal (z-score),[47],0.134
